# Measurements from the supplement of paper PMC10037445.
# In all, about 2,900 compounds were measured (“NF-kB SEAP reporter activity, fold change vs agonist alone”: median about 0.99, highest 2% from about 2.6 on). The list shows a part of the results.
# Assays:
# RAW-Dual [1] = assay: NF-kB SEAP reporter activity, fold change vs agonist alone; higher = enhanced NF-kB activity
# In short: (§1)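 After 50 nL of library stock was delivered by pin tool to RAW-Dual macrophages (50,000 cells/well, DMEM, 384-well plates), a PRR agonist was added 1 h later and the plates were kept at 37 °C, 5% CO2. Twenty hours later, IRF was read from supernatant by QuantiLuc luminescence and NF-κB by QuantiBlue absorbance at 620 nm. Reporter activity is stated as fold change over agonist-alone wells. Wells with IncuCyte confluency under 70% of agonist controls in both mask sets were counted as cytotoxic.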
# RAW-Dual [2] = assay: NF-kB SEAP reporter activity, fold change vs agonist alone; cytotoxicity flag (confluency mask): not cytotoxic; higher = enhanced NF-kB activity
# In short: as §1
# RAW-Dual [3] = assay: NF-kB SEAP reporter activity, fold change vs agonist alone; cytotoxicity flag (confluency mask): cytotoxic (confluency <70% of control); higher = enhanced NF-kB activity
# In short: as §1
# [4] = library stock concentration (final ~1000-fold dilution): 10 mM, cytotoxicity flag (confluency mask): not cytotoxic, agonist: Imiquimod (TLR7) […]
# [5] = library stock concentration (final ~1000-fold dilution): 10 mM, cytotoxicity flag (confluency mask): not cytotoxic, agonist: MPLA (TLR4) […]
# [6] = agonist: ODN 1826 (TLR9) 0.5 ug/mL
# [7] = agonist: Pam2CSK4 (TLR2/6) 0.1 ug/mL
# [8] = agonist: Pam3CSK4 (TLR2/1) 0.1 ug/mL
# [9] = library stock concentration (final ~1000-fold dilution): 10 mM, cytotoxicity flag (confluency mask): cytotoxic (confluency <70% of control), agonist: Imiquimod (TLR7) […]
# [10] = library stock concentration (final ~1000-fold dilution): 10 mM, cytotoxicity flag (confluency mask): cytotoxic (confluency <70% of control), agonist: MPLA (TLR4) […]
smiles,measurement,setting,value
O=C(CCCN1CC=C(n2c(=O)[nH]c3ccccc32)CC1)c1ccc(F)cc1,NF-kB SEAP reporter activity,RAW-Dual [1]; [4],1.01
same,NF-kB SEAP reporter activity,RAW-Dual [1]; [5],1.05
O=C(CCCN1CC=C(n2c(=O)[nH]c3ccccc32)CC1)c1ccc(F)cc1 (library stock concentration (final ~1000-fold dilution): 10 mM),NF-kB SEAP reporter activity,RAW-Dual [2]; agonist: LPS (TLR4) 0.1 ug/mL,0.928
same,NF-kB SEAP reporter activity,RAW-Dual [2]; [6],0.688
same,NF-kB SEAP reporter activity,RAW-Dual [2]; [7],0.982
same,NF-kB SEAP reporter activity,RAW-Dual [2]; [8],0.96
O=C(O)c1cc(O)c2c(c1)C(C1c3cc(C(=O)O)cc(O)c3C(=O)c3c(OC4OC(CO)C(O)C(O)C4O)cccc31)c1cccc(OC3OC(CO)C(O)C(O)C3O)c1C2=O (stereo not drawn),NF-kB SEAP reporter activity,"RAW-Dual [1]; library stock concentration (final ~1000-fold dilution): 2 mM, cytotoxicity flag (confluency mask): not cytotoxic, agonist: Imiquimod (TLR7) […]",0.679
same,NF-kB SEAP reporter activity,"RAW-Dual [1]; library stock concentration (final ~1000-fold dilution): 2 mM, cytotoxicity flag (confluency mask): not cytotoxic, agonist: MPLA (TLR4) […]",1.04
same,NF-kB SEAP reporter activity,RAW-Dual [1]; [4],0.764
same,NF-kB SEAP reporter activity,RAW-Dual [1]; [5],1.05
O=C(O)c1cc(O)c2c(c1)C(C1c3cc(C(=O)O)cc(O)c3C(=O)c3c(OC4OC(CO)C(O)C(O)C4O)cccc31)c1cccc(OC3OC(CO)C(O)C(O)C3O)c1C2=O (stereo not drawn) (library stock concentration (final ~1000-fold dilution): 10 mM),NF-kB SEAP reporter activity,RAW-Dual [2]; agonist: LPS (TLR4) 0.1 ug/mL,1.25
same,NF-kB SEAP reporter activity,RAW-Dual [2]; [6],1.1
same,NF-kB SEAP reporter activity,RAW-Dual [2]; [7],1.14
same,NF-kB SEAP reporter activity,RAW-Dual [2]; [8],0.998
O=C(O)c1cc(O)c2c(c1)C(C1c3cc(C(=O)O)cc(O)c3C(=O)c3c(OC4OC(CO)C(O)C(O)C4O)cccc31)c1cccc(OC3OC(CO)C(O)C(O)C3O)c1C2=O (stereo not drawn) (library stock concentration (final ~1000-fold dilution): 2 mM),NF-kB SEAP reporter activity,RAW-Dual [2]; agonist: LPS (TLR4) 0.1 ug/mL,1.05
same,NF-kB SEAP reporter activity,RAW-Dual [2]; [6],1.1
same,NF-kB SEAP reporter activity,RAW-Dual [2]; [7],1.14
same,NF-kB SEAP reporter activity,RAW-Dual [2]; [8],1.05
COc1ccc2cc(CCC(C)=O)ccc2c1,NF-kB SEAP reporter activity,RAW-Dual [1]; [4],1.04
same,NF-kB SEAP reporter activity,RAW-Dual [1]; [5],1.13
COc1ccc2cc(CCC(C)=O)ccc2c1 (library stock concentration (final ~1000-fold dilution): 10 mM),NF-kB SEAP reporter activity,RAW-Dual [2]; agonist: LPS (TLR4) 0.1 ug/mL,1.51
same,NF-kB SEAP reporter activity,RAW-Dual [2]; [6],1.04
same,NF-kB SEAP reporter activity,RAW-Dual [2]; [7],1.18
same,NF-kB SEAP reporter activity,RAW-Dual [2]; [8],1.22
CCn1cc(C(=O)O)c(=O)c2ccc(C)nc21 (library stock concentration (final ~1000-fold dilution): 10 mM),NF-kB SEAP reporter activity,RAW-Dual [2]; agonist: LPS (TLR4) 0.1 ug/mL,0.895
same,NF-kB SEAP reporter activity,RAW-Dual [2]; [6],1.03
same,NF-kB SEAP reporter activity,RAW-Dual [2]; [7],1.1
same,NF-kB SEAP reporter activity,RAW-Dual [2]; [8],1.03
CCn1cc(C(=O)O)c(=O)c2ccc(C)nc21,NF-kB SEAP reporter activity,RAW-Dual [1]; [4],0.92
same,NF-kB SEAP reporter activity,RAW-Dual [1]; [5],1.04
CN(C)c1ccc(C(=O)NCCCCCCC(=O)NO)cc1,NF-kB SEAP reporter activity,RAW-Dual [1]; [9],2.83
same,NF-kB SEAP reporter activity,RAW-Dual [1]; [10],2.64
CN(C)c1ccc(C(=O)NCCCCCCC(=O)NO)cc1 (library stock concentration (final ~1000-fold dilution): 10 mM),NF-kB SEAP reporter activity,RAW-Dual [3]; agonist: LPS (TLR4) 0.1 ug/mL,4.72
same,NF-kB SEAP reporter activity,RAW-Dual [3]; [6],2.78
CCOC(=O)C(CCc1ccccc1)NC(C)C(=O)N1C(C(=O)O)CC2CCCC21 (stereo not drawn) (library stock concentration (final ~1000-fold dilution): 10 mM),NF-kB SEAP reporter activity,RAW-Dual [2]; agonist: LPS (TLR4) 0.1 ug/mL,1.05
same,NF-kB SEAP reporter activity,RAW-Dual [2]; [6],0.992
same,NF-kB SEAP reporter activity,RAW-Dual [2]; [7],1.03
same,NF-kB SEAP reporter activity,RAW-Dual [2]; [8],1.1
CCOC(=O)C(CCc1ccccc1)NC(C)C(=O)N1C(C(=O)O)CC2CCCC21 (stereo not drawn),NF-kB SEAP reporter activity,RAW-Dual [1]; [4],0.92
same,NF-kB SEAP reporter activity,RAW-Dual [1]; [5],0.824
Nc1ccc(S(=O)(=O)c2ccc(N)cc2)cc1 (library stock concentration (final ~1000-fold dilution): 10 mM),NF-kB SEAP reporter activity,RAW-Dual [2]; agonist: LPS (TLR4) 0.1 ug/mL,1.18
same,NF-kB SEAP reporter activity,RAW-Dual [2]; [6],1.08
same,NF-kB SEAP reporter activity,RAW-Dual [2]; [7],1.08
same,NF-kB SEAP reporter activity,RAW-Dual [2]; [8],1.04
Nc1ccc(S(=O)(=O)c2ccc(N)cc2)cc1,NF-kB SEAP reporter activity,RAW-Dual [1]; [4],0.991
same,NF-kB SEAP reporter activity,RAW-Dual [1]; [5],1.01
O=C(c1ccc(C(=O)N2CCC(N3CCCC3)CC2)c(Nc2ccccc2)c1)N1CCC(N2CCCC2)CC1 (library stock concentration (final ~1000-fold dilution): 10 mM),NF-kB SEAP reporter activity,RAW-Dual [2]; agonist: LPS (TLR4) 0.1 ug/mL,0.933
same,NF-kB SEAP reporter activity,RAW-Dual [2]; [6],0.944
same,NF-kB SEAP reporter activity,RAW-Dual [2]; [7],1.04
same,NF-kB SEAP reporter activity,RAW-Dual [2]; [8],1.33
O=C(c1ccc(C(=O)N2CCC(N3CCCC3)CC2)c(Nc2ccccc2)c1)N1CCC(N2CCCC2)CC1,NF-kB SEAP reporter activity,RAW-Dual [1]; [4],0.917
same,NF-kB SEAP reporter activity,RAW-Dual [1]; [5],1.12
OCCN1CCN(CCCN2c3ccccc3Sc3ccc(Cl)cc32)CC1 (library stock concentration (final ~1000-fold dilution): 10 mM),NF-kB SEAP reporter activity,RAW-Dual [3]; agonist: LPS (TLR4) 0.1 ug/mL,1.07
same,NF-kB SEAP reporter activity,RAW-Dual [3]; [6],0.527
same,NF-kB SEAP reporter activity,RAW-Dual [3]; [7],0.739
same,NF-kB SEAP reporter activity,RAW-Dual [3]; [8],0.763
OCCN1CCN(CCCN2c3ccccc3Sc3ccc(Cl)cc32)CC1,NF-kB SEAP reporter activity,RAW-Dual [1]; [10],1.58
CN(CCN1CCC(OC(=O)Nc2ccccc2-c2ccccc2)CC1)C(=O)c1ccc(CN2CCC(C(N)=O)CC2)cc1 (library stock concentration (final ~1000-fold dilution): 10 mM),NF-kB SEAP reporter activity,RAW-Dual [2]; agonist: LPS (TLR4) 0.1 ug/mL,1.25
same,NF-kB SEAP reporter activity,RAW-Dual [2]; [6],0.452
same,NF-kB SEAP reporter activity,RAW-Dual [2]; [7],0.943
same,NF-kB SEAP reporter activity,RAW-Dual [2]; [8],0.848
CN(CCN1CCC(OC(=O)Nc2ccccc2-c2ccccc2)CC1)C(=O)c1ccc(CN2CCC(C(N)=O)CC2)cc1,NF-kB SEAP reporter activity,RAW-Dual [1]; [5],1.08
C=CCN1CCCC1CNC(=O)c1cc2nn[nH]c2cc1OC.Cl (stereo not drawn),NF-kB SEAP reporter activity,RAW-Dual [1]; [4],0.951
same,NF-kB SEAP reporter activity,RAW-Dual [1]; [5],1.03
C=CCN1CCCC1CNC(=O)c1cc2nn[nH]c2cc1OC.Cl (stereo not drawn) (library stock concentration (final ~1000-fold dilution): 10 mM),NF-kB SEAP reporter activity,RAW-Dual [2]; agonist: LPS (TLR4) 0.1 ug/mL,1.03
same,NF-kB SEAP reporter activity,RAW-Dual [2]; [6],0.958
same,NF-kB SEAP reporter activity,RAW-Dual [2]; [7],1.01
same,NF-kB SEAP reporter activity,RAW-Dual [2]; [8],1.17
O=C(Nc1cc(C(F)(F)F)ccc1C(F)(F)F)c1cc(Br)ccc1O,NF-kB SEAP reporter activity,RAW-Dual [1]; [9],0.255
same,NF-kB SEAP reporter activity,RAW-Dual [1]; [10],2.3
O=C(Nc1cc(C(F)(F)F)ccc1C(F)(F)F)c1cc(Br)ccc1O (library stock concentration (final ~1000-fold dilution): 10 mM),NF-kB SEAP reporter activity,RAW-Dual [3]; agonist: LPS (TLR4) 0.1 ug/mL,2.68
same,NF-kB SEAP reporter activity,RAW-Dual [3]; [6],1.82
same,NF-kB SEAP reporter activity,RAW-Dual [3]; [7],0.573
same,NF-kB SEAP reporter activity,RAW-Dual [3]; [8],0.839
CCCCNNC(=O)c1ccc(Br)cc1 (library stock concentration (final ~1000-fold dilution): 10 mM),NF-kB SEAP reporter activity,RAW-Dual [2]; agonist: LPS (TLR4) 0.1 ug/mL,3.15
same,NF-kB SEAP reporter activity,RAW-Dual [2]; [6],2.18
same,NF-kB SEAP reporter activity,RAW-Dual [2]; [7],0.64
same,NF-kB SEAP reporter activity,RAW-Dual [2]; [8],0.656
